Among the data in patent US20080305997A1 are immunosuppressive activity of Salp15 in T cells isolated from CD4-negative mice stimulated with anti-CD3/CD28 and immunosuppressive activity of Salp15 in control T cells stimulated with anti-CD3/CD28 values, retold here.

This experiment deals with CD4 on mouse CD4+ T cells (mouse), P06332. Put plainly: cell-based or functional assay.
Sequence of CD4 on mouse CD4+ T cells (mouse), P06332 (P06332 27-457): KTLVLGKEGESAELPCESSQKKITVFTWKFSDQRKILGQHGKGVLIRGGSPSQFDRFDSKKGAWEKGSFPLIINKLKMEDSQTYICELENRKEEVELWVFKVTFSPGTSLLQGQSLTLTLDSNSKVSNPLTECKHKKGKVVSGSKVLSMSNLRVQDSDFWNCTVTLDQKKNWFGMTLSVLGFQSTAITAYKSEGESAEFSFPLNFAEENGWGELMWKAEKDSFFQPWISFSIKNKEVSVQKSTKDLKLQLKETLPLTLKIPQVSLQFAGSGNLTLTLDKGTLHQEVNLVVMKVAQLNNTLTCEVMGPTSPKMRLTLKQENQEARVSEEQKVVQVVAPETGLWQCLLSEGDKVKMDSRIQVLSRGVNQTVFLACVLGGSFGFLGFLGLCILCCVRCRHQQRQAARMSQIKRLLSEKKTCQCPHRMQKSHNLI

B1: Salp15 (Ixodes scapularis salivary protein 15), recombinant 6x histidine-tagged, Q95WZ4 23-135 (ligand)
chain: ESGPTKADASTADKDTKKNNVQLRFPNYISNHQKLALKLLKICKDSKSSHNSLSSRSSDVINDKYVDFKNCTFLCKHGNDVNVTLNLPEDTPCGPNGQTCAEKNKCVGHIPGC
Regarding B1, the immunosuppressive activity of Salp15 in T cells isolated from CD4-negative mice stimulated with anti-CD3/CD28 was found to be 33% and the immunosuppressive activity of Salp15 in control T cells stimulated with anti-CD3/CD28 was 85%.
